Assay results: patent US7160888B2, “[1,8]naphthyridin-2-ones and related compounds for the treatment of schizophrenia” (Warner Lambert Company LLC, priority 2003, dated 2007)

biological target: dopamine D2 receptor (Homo sapiens, UniProt P14416); test: biochemical; conditions: D2 Ki (nM), Table 1; 0.4 nM [3H]spiperone, CHO-hD2L membranes
Chain of UniProt P14416 (P14416 whole entry): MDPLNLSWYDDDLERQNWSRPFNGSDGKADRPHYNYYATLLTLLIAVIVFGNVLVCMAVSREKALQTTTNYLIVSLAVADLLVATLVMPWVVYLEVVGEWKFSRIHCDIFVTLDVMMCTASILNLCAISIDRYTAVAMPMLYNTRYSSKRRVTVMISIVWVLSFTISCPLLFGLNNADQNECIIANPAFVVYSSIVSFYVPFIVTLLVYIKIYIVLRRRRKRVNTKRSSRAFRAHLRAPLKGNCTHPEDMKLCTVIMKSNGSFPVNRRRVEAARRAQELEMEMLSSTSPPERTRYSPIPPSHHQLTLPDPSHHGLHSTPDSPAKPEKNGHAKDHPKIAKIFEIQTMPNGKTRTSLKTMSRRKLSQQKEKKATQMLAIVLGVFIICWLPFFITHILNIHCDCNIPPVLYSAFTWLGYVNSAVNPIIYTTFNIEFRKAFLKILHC

Point of comparison: CC(=O)c1c(F)cccc1N1CCN(CCCCOc2ccc3c(n2)NC(=O)CC3)CC1 [Example A30, 7-{4-[4-(2-Acetyl-3-fluoro-phenyl)-piperazin-1-yl]-butoxy}-3,4-dihydro-1H-[1,8]naphthyridin-2-one], Ki 15.5 nM. Against it:
- O=C1CCc2ccc(OCCCCN3CCN(c4cccc5c4CC(O)CC5)CC3)nc2N1 (centres unmarked) [Example A57, 7-{4-[4-(7-Hydroxy-5,6,7,8-tetrahydro-naphthalen-1-yl)-piperazin-1-yl]-butoxy}-3,4-dihydro-1H-[1,8]naphthyridin-2-one] — 1.6-fold lower, 9.4 nM
- COc1ccc2cccc(N3CCN(CCCCOc4nc(C)c5ccc(=O)n(C)c5n4)CC3)c2c1 [Example H14, 2-{4-[4-(7-Methoxy-naphthalen-1-yl)-piperazin-1-yl]-butoxy}-4,8-dimethyl-8H-pyrido[2,3-d]pyrimidin-7-one] — 1.7-fold lower, 9.3 nM
- O=c1ccc2cnc(OCCCCN3CCN(c4cccc5ccccc45)CC3)nc2[nH]1 [Example H4, 2-[4-(4-Naphthalen-1-yl-piperazin-1-yl)-butoxy]-8H-pyrido[2,3-d]pyrimidin-7-one] — 3.2-fold lower, 4.9 nM
- CC(C)Oc1ccccc1N1CCN(CCCCOc2ccc3c(n2)NC(=O)CC3)CC1 [Example A26, 7-{4-[4-(2-Isopropoxy-phenyl)-piperazin-1-yl]-butoxy}-3,4-dihydro-1H-[1,8]naphthyridin-2-one] — 16-fold lower, 1 nM
- O=C1CCc2ccc(OCCCCN3CCN(c4cccc5cc(F)c(F)cc45)CC3)nc2N1 [Example A72, 7-{4-[4-(6,7-Difluoro-naphthalen-1-yl)-piperazin-1-yl]-butoxy}-3,4-dihydro-1H-[1,8]naphthyridin-2-one] — 4.4-fold lower, 3.5 nM
- O=c1ccc2ccc(OCCCCN3CCN(c4ccc(F)c(Cl)c4Cl)CC3)nc2[nH]1 [Example B24, 7-{4-[4-(2,3-Dichloro-4-fluoro-phenyl)-piperazin-1-yl]-butoxy}-1H-[1,8]naphthyridin-2-one] — 3.4-fold lower, 4.6 nM
- O=C1CCc2cnc(OCCCCN3CCN(c4cccc(Cl)c4Cl)CC3)c(Cl)c2N1 [Example I9, 8-Chloro-7-{4-[4-(2,3-dichloro-phenyl)-piperazin-1-yl]-butoxy}-3,4-dihydro-1H-[1,6]naphthyridin-2-one] — 3.4-fold lower, 4.5 nM
- O=C1CCc2cccc(N3CCN(CCCCOc4ccc5ccc(=O)[nH]c5n4)CC3)c21 [Example B44, 7-{4-[4-(3-Oxo-indan-4-yl)-piperazin-1-yl]-butoxy}-1H-[1,8]naphthyridin-2-one] — 22-fold lower, 0.7 nM
- O=C1CCc2cnc(OCCCCN3CCN(c4cccc5ccccc45)CC3)c(Cl)c2N1 [Example I10, 8-Chloro-7-[4-(4-naphthalen-1-yl-piperazin-1-yl)-butoxy]-3,4-dihydro-1H-[1,6]naphthyridin-2-one] — 1.6-fold lower, 9.5 nM
- CC1(C)OC(=O)Nc2cc(CCCCCN3CCN(c4cccc(Cl)c4Cl)CC3)ncc21 [Example I19, 7-{5-[4-(2,3-Dichloro-phenyl)-piperazin-1-yl]-pentyl}-4,4-dimethyl-1,4-dihydro-pyrido[4,3-d][1,3]oxazin-2-one] — 2.1-fold lower, 7.5 nM
- O=C1CCCc2cccc(N3CCN(CCCCOc4ccc5ccc(=O)[nH]c5n4)CC3)c21 [Example B35, 7-{4-[4-(8-Oxo-5,6,7,8-tetrahydro-naphthalen-1-yl)-piperazin-1-yl]-butoxy}-1H-[1,8]naphthyridin-2-one] — 39-fold lower, 0.4 nM
- O=c1ccc2cnc(OCCCCN3CCN(c4cccc5c4CCC5)CC3)cc2[nH]1 [Example I15, 7-[4-(4-Indan-4-yl-piperazin-1-yl)-butoxy]-1H-[1,6]naphthyridin-2-one] — 6.2-fold lower, 2.5 nM
- CC(=O)c1ccc2c(N3CCN(CCCCOc4ccc5ccc(=O)[nH]c5n4)CC3)cccc2c1 [Example B63, 7-{4-[4-(6-Acetyl-naphthalen-1-yl)-piperazin-1-yl]-butoxy}-1H-[1,8]naphthyridin-2-one] — 3.1-fold higher, 47.9 nM
- CC1(C)Cc2ccc(OCCCCN3CCN(c4cccc(Cl)c4Cl)CC3)nc2NC1=O [Example D13, 7-{4-[4-(2,3-Dichloro-phenyl)-piperazin-1-yl]-butoxy}-3,3-dimethyl-3,4-dihydro-1H-[1,8]naphthyridin-2-one] — 5.5-fold lower, 2.8 nM
- Cc1cccc(N2CCN(CCCCCc3ccc4c(n3)NC(=O)CC4)CC2)c1Cl [Example C10, 7-{5-[4-(2-Chloro-3-methyl-phenyl)-piperazin-1-yl]-pentyl}-3,4-dihydro-1H-[1,8]naphthyridin-2-one] — 2.2-fold lower, 7 nM
- O=C1NCc2ccc(OCCCCN3CCN(c4cccc5ccccc45)CC3)nc2N1 [Example F2, 7-[4-(4-Naphthalen-1-yl-piperazin-1-yl)-butoxy]-3,4-dihydro-1H-pyrido[2,3-d]pyrimidin-2-one] — 16-fold lower, 1 nM
- CC(C)Oc1ccc(Cl)cc1N1CCN(CCCCOc2ccc3ccc(=O)[nH]c3n2)CC1 [Example B9, 7-{4-[4-(5-Chloro-2-isopropoxy-phenyl)-piperazin-1-yl]-butoxy}-1H-[1,8]naphthyridin-2-one] — 9.1-fold lower, 1.7 nM
- O=c1ccc2cnc(OCCCCN3CCN(c4cccc5ccccc45)CC3)cc2[nH]1 [Example I16, 7-[4-(4-Naphthalen-1-yl-piperazin-1-yl)-butoxy]-1H-[1,6]naphthyridin-2-one] — 7.4-fold lower, 2.1 nM
- O=C1CCc2ccc(OCCCCN3CCN(c4cccc5ccc(Cl)cc45)CC3)nc2N1 [Example A74, 7-{4-[4-(7-Chloro-naphthalen-1-yl)-piperazin-1-yl]-butoxy}-3,4-dihydro-1H-[1,8]naphthyridin-2-one] — 3.9-fold lower, 4 nM
- CC(C)COc1ccccc1N1CCN(CCCCOc2ccc3c(n2)NC(=O)CC3)CC1 [Example A27, 7-{4-[4-(2-Isobutoxy-phenyl)-piperazin-1-yl]-butoxy}-3,4-dihydro-1H-[1,8]naphthyridin-2-one] — 11-fold lower, 1.4 nM

same assay, conditions: D2 Ki (nM), Table 2; 0.4 nM [3H]spiperone, CHO-hD2L membranes

Point of comparison: O=C1CCc2ccc(OCCCCN3CCN(c4cccc5nonc45)CC3)nc2N1 [Example A29′, 7-[4-(4-Benzo[1,2,5]oxadiazol-4-yl-piperazin-1-yl)-butoxy]-3,4-dihydro-1H-[1,8]naphthyridin-2-one], Ki 7.4 nM. Against it:
- O=C1CCc2cc(F)c(OCCCCN3CCN(c4cccc5cccnc45)CC3)nc2N1 [Example D1′, 6-Fluoro-7-[4-(4-quinolin-8-yl-piperazin-1-yl)-butoxy]-3,4-dihydro-1H-[1,8]naphthyridin-2-one] — 3.7-fold lower, 2 nM
- O=c1ccc2cnc(OCCCCN3CCN(c4cccc5c4OCC5)CC3)nc2[nH]1 [Example G4′, 2-{4-[4-(2,3-Dihydro-benzofuran-7-yl)-piperazin-1-yl]-butoxy}-8H-pyrido[2,3-d]pyrimidin-7-one] — within 1.5-fold, 9 nM
- CC1(C)COc2c(cccc2N2CCN(CCCCOc3ccc4c(n3)NC(=O)CC4)CC2)C1=O [Example A21′, 7-{4-[4-(3,3-Dimethyl-4-oxo-chroman-8-yl)-piperazin-1-yl]-butoxy}-3,4-dihydro-1H-[1,8]naphthyridin-2-one] — 7.4-fold lower, 1 nM
- COc1ccc2c(N3CCN(CCCCOc4ccc5c(n4)NC(=O)CC5)CC3)cccc2n1 [Example A43′, 7-{4-[4-(2-Methoxy-quinolin-5-yl)-piperazin-1-yl]-butoxy}-3,4-dihydro-1H-[1,8]naphthyridin-2-one] — 3.4-fold higher, 25.2 nM
- CC1(C)CC(=O)Nc2nc(OCCCCN3CCN(c4cccc5c4OCCO5)CC3)ccc21 [Example C2′, 7-{4-[4-(2,3-Dihydro-benzo[1,4]dioxin-5-yl)-piperazin-1-yl]-butoxy}-4,4-dimethyl-3,4-dihydro-1H-[1,8]naphthyridin-2-one] — 3.9-fold lower, 1.9 nM
- Cc1nc(OCCCCN2CCN(c3cccc4c3NC(=O)CC4)CC2)nc2[nH]c(=O)ccc12 [Example G14′, 4-Methyl-2-{4-[4-(2-oxo-1,2,3,4-tetrahydro-quinolin-8-yl)-piperazin-1-yl]-butoxy}-8H-pyrido[2,3-d]pyrimidin-7-one] — 2-fold higher, 15 nM
- O=C1CCc2ccc(OCCCCN3CCN(c4cccc5c4COC5)CC3)nc2N1 [Example A12′, 7-{4-[4-(1,3-Dihydro-isobenzofuran-4-yl)-piperazin-1-yl]-butoxy}-3,4-dihydro-1H-[1,8]naphthyridin-2-one] — 2.6-fold lower, 2.8 nM
- O=c1ccc2ccc(OCCCCN3CCN(c4cccc5ncc(F)cc45)CC3)nc2[nH]1 [Example B34′, 7-{4-[4-(3-Fluoro-quinolin-5-yl)-piperazin-1-yl]-butoxy}-1H-[1,8]naphthyridin-2-one] — 11-fold lower, 0.7 nM
- O=c1ccc2ccc(OCCCCN3CCN(c4cccc5c4COC5)CC3)nc2[nH]1 [Example B14′, 7-{4-[4-(1,3-Dihydro-isobenzofuran-4-yl)-piperazin-1-yl]-butoxy}-1H-[1,8]naphthyridin-2-one] — 3.7-fold lower, 2 nM
- Cc1nc(OCCCCN2CCN(c3cccc4ccoc34)CC2)nc2[nH]c(=O)ccc12 [Example G12′, 2-[4-(4-Benzofuran-7-yl-piperazin-1-yl)-butoxy]-4-methyl-8H-pyrido[2,3-d]pyrimidin-7-one] — 2.5-fold lower, 3 nM
- CC1CCc2cccc(N3CCN(CCCCOc4ccc5ccc(=O)[nH]c5n4)CC3)c2O1 (centres unmarked) [Example B5′, 7-{4-[4-(2-Methyl-chroman-8-yl)-piperazin-1-yl]-butoxy}-1H-[1,8]naphthyridin-2-one] — 25-fold lower, 0.3 nM
- O=c1ccc2ccc(OCCCCN3CCN(c4cccc5ccoc45)CC3)nc2[nH]1 [Example B26′, 7-[4-(4-Benzofuran-7-yl-piperazin-1-yl)-butoxy]-1H-[1,8]naphthyridin-2-one] — 6.2-fold lower, 1.2 nM
- CN1CCCc2c1cccc2N1CCN(CCCCOc2ccc3ccc(=O)[nH]c3n2)CC1 [Example B28′, 7-{4-[4-(1-Methyl-1,2,3,4-tetrahydro-quinolin-5-yl)-piperazin-1-yl]-butoxy}-1H-[1,8]naphthyridin-2-one] — within 1.5-fold, 7.5 nM
- Cc1cc2c(N3CCN(CCCCOc4ccc5c(n4)NC(=O)CC5)CC3)cccc2[nH]1 [Example A27′, 7-{4-[4-(2-Methyl-1H-indol-4-yl)-piperazin-1-yl]-butoxy}-3,4-dihydro-1H-[1,8]naphthyridin-2-one] — 15-fold lower, 0.5 nM
- O=c1ccc2ccc(OCCCCN3CCN(c4cccc5ncccc45)CC3)nc2[nH]1 [Example B22′, 7-[4-(4-Quinolin-5-yl-piperazin-1-yl)-butoxy]-1H-[1,8]naphthyridin-2-one] — 7.4-fold lower, 1 nM
- CC1(C)C=Cc2cccc(N3CCN(CCCCOc4ccc5c(n4)NC(=O)CC5)CC3)c2O1 [Example A5′, 7-{4-[4-(2,2-Dimethyl-2H-chromen-8-yl)-piperazin-1-yl]-butoxy}-3,4-dihydro-1H-[1,8]naphthyridin-2-one] — 3.4-fold lower, 2.2 nM
